Screen size: about 130,000 compounds; about 550 (0.42%) were called active. Inconclusive means that the source gave no clear call. Such entries were picked first, then a sample of the others. The call rests on the fitted dose curve; in most records, active means well fitted inhibition curve with a large enough effect; inconclusive means small, poorly fitted or top-dose-only effect, or effect the other way; inactive means flat fitted curve, though single readings scatter. Potencies of inconclusive entries are left out as doubtful fits.
Assay: qHTS Assay for Inhibitors of the ERK Signaling Pathway using a Homogeneous Screening Assay; Stimulation with EGF; further: nearly all actives have a fitted effect of over 55% in size;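 on activity change, negative = inhibition: plate controls were stimulated vehicle wells for no effect and unstimulated vehicle basal for full effect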
Details: HEK293-V1b, EGF-stimulated phospho-ERK AlphaScreen; activity change, negative = inhibition: at the top concentration
How it was run: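 Stably V1b-transfected HEK293 cells; 30 min compound, then EGF 25 nM final for 5 min at 37C; 10 min lysis; phospho-ERK by AlphaScreen after 5 hr beads at room temperature.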
Potency means the concentration at half of the fitted maximal effect; tags describe the fitted curve by direction and shape.

Row | SMILES | Potency | activity change, negative = inhibition
1 | S=C(NCc1ccccc1)NNc1ccccc1 | inconclusive [inhibitor, partial curve] | –
2 | O=C(CSc1ccc(-c2ccncc2)nn1)N1CCCC1 | inconclusive [inhibitor, single point] | –
3 | O=C(O)CCCc1ccccc1 | inconclusive [activator, single point] | –
4 | COc1ccccc1C1=NOC(Cn2c(NCCOCCO)nc3c2c(=O)n(C)c(=O)n3C)C1 (stereo not given) | inconclusive [inhibitor, full curve, poor fit] | –
5 | CCn1c(O)c(N=NC(=O)Cc2csc(N3CCOCC3)n2)c2ccccc21 | inconclusive [inhibitor, single point] | –
6 | N[C@@H](Cc1ccccc1)c1nnc(SCc2ccccc2F)o1 | inconclusive [inhibitor, single point] | –
7 | CCCOc1cccc(C(=O)NC(=S)Nc2ccc(N3CCN(C)CC3)cc2)c1 | inconclusive [inhibitor, single point] | –
8 | CCOc1ccc(NC(=O)COC(=O)C2(C)CC2(Cl)Cl)c([N+](=O)[O-])c1 (stereo not given) | inconclusive [inhibitor, partial curve] | –
9 | Brc1c(-c2ccccc2)nc2n1Cc1ccccc1-2 | inconclusive [inhibitor, single point] | –
10 | Cc1c(Cl)cccc1NC(=O)CNCc1ccccc1F | – | inactive: -19.5%
11 | CC(=O)c1ccc(N=Nc2ccc(N(C)C)cc2)cc1 | inconclusive [inhibitor, full curve] | –
12 | CS(=O)(=O)c1ccc(Cn2c3c(c4cc(F)cc(F)c42)CCC[C@H]3CC(=O)O)cc1 | – | inactive: -12%
13 | COC(=O)CCCCCN1C(=O)/C(=C\c2ccncc2)SC1=S | inconclusive [inhibitor, partial curve] | –
14 | Cc1ccc(S(=O)(=O)Nc2cccc(CP(=O)(c3ccccc3)c3ccccc3)c2)cc1 | – | inactive: 5.72% [at 57.5 µM]
15 | Cc1cc(N2CCCC2)ccc1/C=C1\NC(=S)N(C)C1=O | inconclusive [inhibitor, single point] | –
16 | CC(=O)Nc1ccc(NC2=C/C(=N/S(=O)(=O)c3cccs3)c3ccccc3C2=O)cc1 | inconclusive [inhibitor, single point] | –
17 | C=CCNC(=O)/C(C#N)=C/c1ccc2c(c1)OCCO2 | inconclusive [inhibitor, single point] | –
18 | COc1ccc(C(=O)/C=C/c2ccc(N3CCCCC3)c([N+](=O)[O-])c2)cc1 | active: 31.6 µM | –
19 | NNC(=O)c1csc(Cc2c(Cl)sc3ccc(Cl)cc23)n1 | – | inactive: 27.4% [at 57.5 µM]
20 | COc1ccc2nc(N(CCN(C)C)C(=O)/C=C/c3cccs3)sc2c1 | inconclusive [inhibitor, single point] | –
21 | CN(C)c1ccc(N=Nc2ccccc2C(=O)OCC(=O)N(C)c2ccccc2)cc1 | active: 10 µM | –
22 | O=C(OCCN1C(=O)c2cccc3c(N4CCOCC4)ccc(c23)C1=O)c1ccc(Cl)cc1 | inconclusive [activator, partial curve] | –
23 | CN(C)CCCN(C(=O)c1ccc2c(c1)CCCC2)c1nc2ccc(F)cc2s1 | inconclusive [inhibitor, single point] | –

Row | SMILES | Potency | activity change, negative = inhibition
24 | Cc1ccc(-c2nc(-c3nccc4ccccc34)oc2-c2ccccc2)cc1 | inconclusive [activator, partial curve] | –
25 | COc1ccc(N2CCN(S(=O)(=O)c3cc(C)ccc3OC)CC2)cc1 | inconclusive [inhibitor, partial curve, poor fit] | –
26 | Cc1cc(C)c(OCCCCN2CCC(C)CC2)c(Br)c1 | – | inactive: -1.37%
27 | CCOC(=O)c1nn(-c2ccc(Cl)cc2Cl)c(=N)c(C#N)c1C | inconclusive [inhibitor, single point] | –
28 | O=C(/C=C/c1ccco1)Nc1ccc(Cl)c(S(=O)(=O)N2CCOCC2)c1 | inconclusive [inhibitor, single point] | –
29 | N#CC(C#N)=C1C=CC=CN1/C(=C\c1ccco1)C(=O)c1ccc(-c2ccccc2)cc1 | inconclusive [inhibitor, partial curve] | –
30 | COc1cccc(OC)c1C(=O)NC1C(=O)N2C1SC(C)(C)C2C(=O)O (stereo not given) | – | inactive: 18.3%
31 | COc1nc(Cc2ccc(Cl)cc2)nc2ccccc12 | inconclusive [inhibitor, single point] | –
32 | CS(=O)(=O)N1CCC2(CCCN(C(c3ccccc3)c3ccccc3)C2)CC1 | inconclusive [inhibitor, single point] | –
33 | CC(C)N1C(=O)/C(=C\c2nc3ccccc3c(=O)[nH]2)c2ccccc21 | inconclusive [inhibitor, single point] | –
34 | COc1ccnc(Oc2ccc(Cl)cc2)c1C#N | inconclusive [inhibitor, single point] | –
35 | CCN(CC)c1ccc(N=Cc2c(C)[nH]c3ccccc23)cc1 | inconclusive [inhibitor, single point] | –
36 | Cc1cccc(N=Nc2ccc(O)c3ncccc23)c1 | inconclusive [inhibitor, partial curve] | –
37 | N=C(N)S/C=C\C(=O)O | – | inactive: -2.39%
38 | CCOc1ccccc1-c1c2cc(O)c(=O)cc-2oc2cc(O)c(O)cc12 | inconclusive [inhibitor, single point] | –
39 | CCOC(=O)CC1Sc2ccccc2NC1=S (stereo not given) | inconclusive [inhibitor, partial curve] | –
40 | CCN(CC)c1ccc(/C=N\N2CCN(Cc3ccc(C)cc3)CC2)cc1 | inconclusive [inhibitor, partial curve] | –
41 | CCn1c(CNc2ccc(Cl)cc2)nnc1SCc1ccc(Cl)cc1 | inconclusive [inhibitor, single point] | –
42 | CN(C)S(=O)(=O)c1cccc(-c2csc(N/N=C/c3ccco3)n2)c1 | active: 22.4 µM | –
43 | Cc1ccccc1Nc1oc(-c2ccccc2)nc1-c1ccccc1F | – | inactive: 1.46%
44 | COC(=O)c1ccccc1NC(=O)CSc1nc2ncccc2[nH]1 | – | inactive: 0.911%
45 | CC(=O)OCC(OC(C)=O)C(OC(C)=O)C(OC(C)=O)C(=O)Nc1cccc(C)c1 (stereo not given) | inconclusive [inhibitor, partial curve] | –
